Test results from the RNAGym collection of RNA variant scans (doi:10.1073/pnas.2313332121).
Variants at the background level are over-represented here.

B1: TPR 5TU (parent)
chain: GGAUCUUCUCGAUCUAACAAAAAAGACAAAUCUGCCACAAAGCUUGAGAGCAUCUUCGGAUGCAGAGGCGGCAGCCUUCGGUGGCGCGAUAGCGCCAACGUUCUCAACUAUGACACGCAAAACGCGUGCUCCGUUGAAUGGAGUUUAUCAUG

Variants of: B1
Experiment: polymerase ribozyme fitness, log enrichment relative to wild type (log ratio); higher = more active; in vitro selection for triplet polymerase activity
In short: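 Fitness is a logarithmic measure of how a genotype enriched relative to the wild type, with replicate averages weighted by inverse variance. The logarithm uses base 2, and enrichment came from Illumina sequencing of input and output libraries. Those libraries were PCR-built, transcribed mutants of each subunit of a heterodimeric triplet polymerase ribozyme, passed through one triplicate in vitro selection round that included frozen incubation at −7 °C, gel excision of extended constructs and streptavidin-bead capture. Genotypes were kept only if they had ≥10 input reads and ≥1 read per output.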

A16G A19C G88C and U15A C54G A115G G128A cannot be ordered by “polymerase ribozyme fitness (log ratio)” value: ≤ -4.2 for the first, ≤ -4.2 for the second.

Going from A16C C36A G46C G68C C93U G112U A115C A122U G143U to U15A C75G C108U, the “polymerase ribozyme fitness (log ratio)” value rises from ≤ -4.2 to -4.16.

U15G A17G A28C C43A U56A A91U C125U U144G and U15A C27U A47G A52C U55A A73U G74C U90C G94A U139G cannot be ordered by “polymerase ribozyme fitness (log ratio)” value: ≤ -4.2 for the first, ≤ -4.2 for the second.

U15G C18A A23C A60G U104G C123G and A16C U56G C93A U104G cannot be ordered by “polymerase ribozyme fitness (log ratio)” value: ≤ -4.2 for the first, ≤ -4.2 for the second.

U15A C85A A91U A98C C116G G136A and A16C C43A C54G U55A C87A G124A cannot be ordered by “polymerase ribozyme fitness (log ratio)” value: ≤ -4.2 for the first, ≤ -4.2 for the second.

A16G A28G G59A G80A G83C C87U and U15G A29C U31G G88C C116U cannot be ordered by “polymerase ribozyme fitness (log ratio)” value: ≤ -4.2 for the first, ≤ -4.2 for the second.

Going from U15G A21C A26U C38G G92A A113C to U15G C51U A98U A115G G136A, the “polymerase ribozyme fitness (log ratio)” value rises from ≤ -4.2 to -2.29.

Compared with U15C G25C A39U C93U, A16G A37U U134G is higher in “polymerase ribozyme fitness (log ratio)” value: ≤ -4.2 for the first, -3.68 for the second.

First: U15G A66C C87U C95U U104G
Second: U15G A19U A91U
The “polymerase ribozyme fitness (log ratio)” value of the first is lower: ≤ -4.2 for the first, -3.99 for the second.

A16C C69U G81A C93A and U15G U61A A107C C114U G140U cannot be ordered by “polymerase ribozyme fitness (log ratio)” value: ≤ -4.2 for the first, ≤ -4.2 for the second.

A16C A110U G136U and A16G A47U G67A G152U cannot be ordered by “polymerase ribozyme fitness (log ratio)” value: ≤ -4.2 for the first, ≤ -4.2 for the second.

U15A C76A G94U C125U C131U C149A G152U and A16C A24G C35G A64G G80C C95U cannot be ordered by “polymerase ribozyme fitness (log ratio)” value: ≤ -4.2 for the first, ≤ -4.2 for the second.

U15G A30C C57G U77C C99G C116G U151C and A16C A29G U45A C96G C105U C116G A119U C132U cannot be ordered by “polymerase ribozyme fitness (log ratio)” value: ≤ -4.2 for the first, ≤ -4.2 for the second.

U15G G34A C75A A150U and A16C C27G U53A C54A G74A G94A cannot be ordered by “polymerase ribozyme fitness (log ratio)” value: ≤ -4.2 for the first, ≤ -4.2 for the second.

A16C A49U G59A C76A G136A and A16C C27U U55A A113C C116G A137C A138U cannot be ordered by “polymerase ribozyme fitness (log ratio)” value: ≤ -4.2 for the first, ≤ -4.2 for the second.

Going from U15G A16U A47C C85U C118G G133C U145C to A16C A20C C85A G141C, the “polymerase ribozyme fitness (log ratio)” value rises from ≤ -4.2 to -2.3.

Going from A16C A17U A47C U53A U101G to U15A G58A G86A U144G, the “polymerase ribozyme fitness (log ratio)” value rises from ≤ -4.2 to 0.552.

U15C A49C U77G C85A U109C and U15G C76A C87G U90A C103A U134A cannot be ordered by “polymerase ribozyme fitness (log ratio)” value: ≤ -4.2 for the first, ≤ -4.2 for the second.

Compared with A16C A21U A39C U44A U45A A49G G84A G126U, U15G A52U is higher in “polymerase ribozyme fitness (log ratio)” value: ≤ -4.2 for the first, -1.59 for the second.

Going from U15A G48U U53A C76G C85G A97C A98G A106U to U15C A47C C54U A89U C95G, the “polymerase ribozyme fitness (log ratio)” value rises from ≤ -4.2 to -2.01.

U15C A91U and A16G A26U A60U G67C G80U A106C C149G cannot be ordered by “polymerase ribozyme fitness (log ratio)” value: ≤ -4.2 for the first, ≤ -4.2 for the second.

Going from U15G G92U A147U to A16C A20G C27U A60G G117A, the “polymerase ribozyme fitness (log ratio)” value falls from 0.901 to -3.38.

First: A16G A40C A119C U127C
Second: U15C G80C C93G A115C U144C
The “polymerase ribozyme fitness (log ratio)” value of the first is higher: -3.55 for the first, ≤ -4.2 for the second.

U15A C43U U53G C76A U102G A119G G128U U135G A142U and U15G U31G A40U C57A C95G C125U G140U cannot be ordered by “polymerase ribozyme fitness (log ratio)” value: ≤ -4.2 for the first, ≤ -4.2 for the second.

U15G G83C C95U C96A C103G and A16C C38U A64G G94U C99U A107U C118G cannot be ordered by “polymerase ribozyme fitness (log ratio)” value: ≤ -4.2 for the first, ≤ -4.2 for the second.

A16G A28C C38U G46U C75G A89U C96G A97U A138G and A16C A37G C93G cannot be ordered by “polymerase ribozyme fitness (log ratio)” value: ≤ -4.2 for the first, ≤ -4.2 for the second.

U15C A23G C27G G67A C85U and U15G A28G A29U A49U G83U A98U cannot be ordered by “polymerase ribozyme fitness (log ratio)” value: ≤ -4.2 for the first, ≤ -4.2 for the second.

A16C A29C A30U U44G C57A C75G and U15G G68U C87U G88A G152A cannot be ordered by “polymerase ribozyme fitness (log ratio)” value: ≤ -4.2 for the first, ≤ -4.2 for the second.

Compared with U15G A24U A60G G92U, A16G A30U U44A G81A C95U C125G is lower in “polymerase ribozyme fitness (log ratio)” value: 0.475 for the first, ≤ -4.2 for the second.

U15G C76G A107C U148A G152A and U15A G67A U78G A106C A110G G141U cannot be ordered by “polymerase ribozyme fitness (log ratio)” value: ≤ -4.2 for the first, ≤ -4.2 for the second.

Going from U15C C87U A142U to A16C A40C U44A G50A A52G U56G A147C, the “polymerase ribozyme fitness (log ratio)” value falls from -0.702 to ≤ -4.2.

A16G A29U U45A C54G C87G C125G and U15C C75U U101G C103A cannot be ordered by “polymerase ribozyme fitness (log ratio)” value: ≤ -4.2 for the first, ≤ -4.2 for the second.

U15G U77G C93G G152C and U15G A29U C43A G94U cannot be ordered by “polymerase ribozyme fitness (log ratio)” value: ≤ -4.2 for the first, ≤ -4.2 for the second.

Going from A16C C63G G70A C85A to U15C U61A A89G A98G, the “polymerase ribozyme fitness (log ratio)” value rises from ≤ -4.2 to -1.62.

A16C U31G A39C G42C and U15G A29U A91G U102G A110U A120U cannot be ordered by “polymerase ribozyme fitness (log ratio)” value: ≤ -4.2 for the first, ≤ -4.2 for the second.

U15C A24G U55A C76G C85A C123A G124C and A16C A19U A73G C87A U148G G152U cannot be ordered by “polymerase ribozyme fitness (log ratio)” value: ≤ -4.2 for the first, ≤ -4.2 for the second.

First: A16C A24G A40G C118U
Second: A16C C36U G59C
The “polymerase ribozyme fitness (log ratio)” value of the first is lower: ≤ -4.2 for the first, -2.53 for the second.

U15G A49G G50A C105A C118A C149G G152U and U15G A16U G48A G59U U61A C75A G83C cannot be ordered by “polymerase ribozyme fitness (log ratio)” value: ≤ -4.2 for the first, ≤ -4.2 for the second.

Compared with U15C A122U, A16C U44A C87A is lower in “polymerase ribozyme fitness (log ratio)” value: 0.45 for the first, ≤ -4.2 for the second.

U15G C18G U45A A60C U61A G74U A91G U134C and A16C C54U G92A A106G C116G U139A cannot be ordered by “polymerase ribozyme fitness (log ratio)” value: ≤ -4.2 for the first, ≤ -4.2 for the second.

U15C C79A G80U A121U C149U and A16G A24U G88A C95U A122U U130C cannot be ordered by “polymerase ribozyme fitness (log ratio)” value: ≤ -4.2 for the first, ≤ -4.2 for the second.

In the case of U15C A28U C35A G92A G112U U151A, the “polymerase ribozyme fitness (log ratio)” value is reported as ≤ -4.2.
